According to article PMC5434977 (Analytical chemistry, 2016):

Assays:
Escherichia coli MTAN = Escherichia coli MTAN (Escherichia coli, UniProt P0AF12)
[1] = tested on: Neisseria meningitidis MTAN; conditions: substrate 2AMTA
[2] = tested on: Staphylococcus aureus MTAN; conditions: substrate 2AMTA

2-amino-5′-methylthioadenosine [2AMTA]
inhibition with respect to MTA (Escherichia coli MTAN; E. coli MTAN, 2AMTA concentrations up to 300 μM): did not act as an inhibitor | activity of E. coli MTAN with 2AMTA as substrate (Escherichia coli MTAN; compared to hpMTAN): inactive | Km [1]: 7 ± 1.9 µM | kcat [1]: 1.9 ± 0.27 s⁻¹ | Km [2]: 10.4 ± 4.2 µM | kcat [2]: 1.8 ± 0.26 s⁻¹
